Reference: publication PMC9381633
Residue numbers refer to the chain shown, from its start. Results are given in words; binding and its absence hold for the method and conditions named. For some of these results: Binding seen in cells or lysates may run through a third protein. Some binding calls cover weakened binding; strength is not graded here. For some of these results: Tags and fused reporters may be left off the sequences shown. One block for each substance: values may come before it.

Protein sequences, listed by entry. Tags and fused reporters are not part of them.
UniProt Q8JZP2: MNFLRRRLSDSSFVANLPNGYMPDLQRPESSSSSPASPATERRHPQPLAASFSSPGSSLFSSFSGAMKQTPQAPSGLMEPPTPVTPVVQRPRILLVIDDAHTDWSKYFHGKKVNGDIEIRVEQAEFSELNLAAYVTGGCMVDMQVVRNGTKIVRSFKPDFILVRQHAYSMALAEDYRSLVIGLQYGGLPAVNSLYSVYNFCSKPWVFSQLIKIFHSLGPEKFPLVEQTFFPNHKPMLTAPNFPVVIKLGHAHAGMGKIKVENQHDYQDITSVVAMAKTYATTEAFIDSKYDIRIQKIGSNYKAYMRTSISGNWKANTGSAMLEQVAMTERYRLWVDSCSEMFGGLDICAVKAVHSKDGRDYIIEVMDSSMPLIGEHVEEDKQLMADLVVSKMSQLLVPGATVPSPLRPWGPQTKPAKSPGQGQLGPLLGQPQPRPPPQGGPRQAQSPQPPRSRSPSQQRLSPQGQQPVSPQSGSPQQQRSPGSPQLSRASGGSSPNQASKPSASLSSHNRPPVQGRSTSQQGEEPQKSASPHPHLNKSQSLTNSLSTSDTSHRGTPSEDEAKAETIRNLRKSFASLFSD
UniProt O70441: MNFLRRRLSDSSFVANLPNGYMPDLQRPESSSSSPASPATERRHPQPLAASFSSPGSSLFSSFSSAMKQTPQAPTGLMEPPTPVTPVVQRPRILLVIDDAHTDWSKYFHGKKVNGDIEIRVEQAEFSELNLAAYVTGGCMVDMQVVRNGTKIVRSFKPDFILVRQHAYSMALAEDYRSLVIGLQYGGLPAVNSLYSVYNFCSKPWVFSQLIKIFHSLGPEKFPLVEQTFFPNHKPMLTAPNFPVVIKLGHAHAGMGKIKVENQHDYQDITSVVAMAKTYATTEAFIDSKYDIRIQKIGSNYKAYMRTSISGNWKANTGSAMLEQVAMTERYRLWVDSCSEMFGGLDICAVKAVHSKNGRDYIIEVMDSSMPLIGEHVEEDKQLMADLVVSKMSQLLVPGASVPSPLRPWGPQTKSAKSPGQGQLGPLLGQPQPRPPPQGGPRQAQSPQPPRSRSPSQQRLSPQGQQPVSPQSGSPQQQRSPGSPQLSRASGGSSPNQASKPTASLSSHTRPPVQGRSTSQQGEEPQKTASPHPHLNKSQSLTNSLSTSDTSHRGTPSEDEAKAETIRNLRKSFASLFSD
UniProt O14994: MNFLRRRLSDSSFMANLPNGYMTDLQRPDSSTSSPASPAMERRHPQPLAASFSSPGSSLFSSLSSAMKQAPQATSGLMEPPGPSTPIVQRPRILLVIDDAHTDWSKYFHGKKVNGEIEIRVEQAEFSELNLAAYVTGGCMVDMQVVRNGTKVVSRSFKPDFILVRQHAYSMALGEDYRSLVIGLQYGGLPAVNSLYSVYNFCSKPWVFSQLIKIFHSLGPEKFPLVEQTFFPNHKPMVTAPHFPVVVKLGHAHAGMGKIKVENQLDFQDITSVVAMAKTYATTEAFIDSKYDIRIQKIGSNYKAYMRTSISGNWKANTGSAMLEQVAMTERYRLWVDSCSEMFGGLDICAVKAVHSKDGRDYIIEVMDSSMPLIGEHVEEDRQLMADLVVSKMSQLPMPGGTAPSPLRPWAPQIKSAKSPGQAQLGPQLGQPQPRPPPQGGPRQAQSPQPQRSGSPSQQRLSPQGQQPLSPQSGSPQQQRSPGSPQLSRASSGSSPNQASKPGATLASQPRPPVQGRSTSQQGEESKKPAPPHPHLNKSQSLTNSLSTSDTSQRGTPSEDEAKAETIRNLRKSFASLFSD

Experiments:
[1] = target: T1, Myc-tagged C9orf72L (human) (UniProt Q96LT7); test: proximity ligation; HEK293 co-transfected (laced with EGFP), fixed; anti-V5 and anti-Myc antibodies; Duolink In Situ Kit; PLA intensity per cell as corrected total cell fluorescence
T1 sequence: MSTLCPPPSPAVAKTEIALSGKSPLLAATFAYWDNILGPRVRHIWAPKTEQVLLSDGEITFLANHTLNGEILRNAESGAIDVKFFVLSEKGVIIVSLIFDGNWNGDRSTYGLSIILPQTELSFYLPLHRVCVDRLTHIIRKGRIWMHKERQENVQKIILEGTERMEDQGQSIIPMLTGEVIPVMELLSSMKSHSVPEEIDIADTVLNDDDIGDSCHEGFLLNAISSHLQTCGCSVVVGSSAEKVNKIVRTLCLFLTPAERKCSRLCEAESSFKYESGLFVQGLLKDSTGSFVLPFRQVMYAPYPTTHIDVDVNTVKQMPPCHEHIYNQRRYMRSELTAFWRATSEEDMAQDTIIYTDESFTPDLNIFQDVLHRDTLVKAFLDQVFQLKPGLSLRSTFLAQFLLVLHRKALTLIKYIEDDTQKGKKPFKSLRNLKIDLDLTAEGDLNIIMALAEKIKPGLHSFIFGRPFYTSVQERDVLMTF

Myc-C9orf72S (human) = target: T2, Myc-C9orf72S (human) (UniProt Q96LT7); test: co-IP; HEK293 co-transfected; lysis in modified BRB80 buffer (80 mM PIPES pH 6.8, 150 mM NaCl, 1% NP-40); immunoprecipitation with anti-Myc antibody and Protein G Sepharose, 4 °C; immunoblot for Myc/C9orf72 and V5
T2 sequence: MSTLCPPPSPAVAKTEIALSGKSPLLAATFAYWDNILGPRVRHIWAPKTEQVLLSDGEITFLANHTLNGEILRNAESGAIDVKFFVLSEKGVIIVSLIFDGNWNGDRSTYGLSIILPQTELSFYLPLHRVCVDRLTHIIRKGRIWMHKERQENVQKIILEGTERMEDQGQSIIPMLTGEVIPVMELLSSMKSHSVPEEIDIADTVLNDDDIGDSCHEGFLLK

[2] = target: T1, Myc-tagged C9orf72L (human); test: as above
[3] = target: T3, Myc-C9orf72ΔLGN (AA 205–481) (human) (UniProt Q96LT7); test: as above
T3 sequence: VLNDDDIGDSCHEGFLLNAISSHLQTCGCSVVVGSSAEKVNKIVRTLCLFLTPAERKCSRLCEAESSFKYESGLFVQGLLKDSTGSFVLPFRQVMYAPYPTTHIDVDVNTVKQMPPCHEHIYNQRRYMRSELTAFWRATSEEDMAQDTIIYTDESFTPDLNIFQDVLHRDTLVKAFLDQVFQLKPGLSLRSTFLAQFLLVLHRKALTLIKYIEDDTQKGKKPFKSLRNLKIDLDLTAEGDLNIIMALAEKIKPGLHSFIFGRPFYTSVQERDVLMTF

[4] = target: T4, endogenous C9orf72 (mouse brain synaptosomes) (mouse (endogenous in mouse brain synaptosomes)) (UniProt Q6DFW0); test: co-IP; endogenous proteins; crude synaptosomal fraction (P2') of 12-week-old mouse brains solubilised in 80 mM PIPES pH 6.8, 1% NP-40, IP with 50 mM NaCl, 4 µg anti-C9orf72 antibody 16 h at 4 °C, Protein G Mag Sepharose; controls: irrelevant antibody and C9orf72-KO synaptosomes
T4 sequence: T1 sequence with L4I, K22E, E50D, I158V, S188A, E198D, S287A, Q386H, V404I

[5] = target: T5, endogenous C9orf72 (rat hippocampal neurons) (rat (endogenous in primary hippocampal neurons)) (UniProt Q66HC3); test: proximity ligation; endogenous proteins in 12DIV primary rat hippocampal neurons, fixed; antibody pairs C9orf72/Syn3 or C9orf72/Syn1 with synaptophysin co-stain; Duolink In Situ Kit; spots per image normalised to synaptophysin intensity
T5 sequence: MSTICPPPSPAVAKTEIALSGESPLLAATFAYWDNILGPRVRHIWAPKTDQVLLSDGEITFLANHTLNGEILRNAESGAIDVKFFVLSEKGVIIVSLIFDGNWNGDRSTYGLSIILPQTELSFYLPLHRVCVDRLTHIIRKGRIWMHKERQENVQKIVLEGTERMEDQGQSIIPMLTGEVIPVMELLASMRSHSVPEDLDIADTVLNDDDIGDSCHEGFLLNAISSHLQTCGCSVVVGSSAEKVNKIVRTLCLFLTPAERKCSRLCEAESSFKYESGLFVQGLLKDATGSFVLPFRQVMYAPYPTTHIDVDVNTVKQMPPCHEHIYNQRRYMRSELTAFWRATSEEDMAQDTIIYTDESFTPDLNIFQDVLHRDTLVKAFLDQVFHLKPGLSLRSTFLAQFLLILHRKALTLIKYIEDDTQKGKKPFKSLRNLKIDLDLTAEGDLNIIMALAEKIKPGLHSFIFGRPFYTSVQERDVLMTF

[6] = target: T6, Human C9orf72L fused to the DNA binding domain of GAL4 (bait) (human) (UniProt Q96LT7); test: two-hybrid; C9orf72L fused to the GAL4 DNA binding domain (pGBKT7) as bait; screen of an arrayed human brain full-length ORF cDNA library of approximately 15,000 clones
T6 sequence: T1 sequence

Substance: V5-tagged Syn1a (from UniProt P09951 1-704)
- binding [1]: binds

Substance: endogenous Syn1 (mouse brain synaptosomes) (from UniProt O88935 1-706)
- binding [4]: binds

Substance: endogenous Syn3 (mouse brain synaptosomes) (from UniProt Q8JZP2 1-579)
- binding [4]: binds

Substance: endogenous Syn3 (rat hippocampal neurons) (from UniProt O70441 1-579)
- binding [5]: binds

Other lines, results leading:

- binding (Myc-C9orf72S (human)): binds
- binding [2]: binds
- binding [3]: no binding
- binding [1]: binds
Substance: V5-tagged Synapsin-3a (from UniProt O14994 1-580)

- binding [5]: binds
Substance: endogenous Syn1 (rat hippocampal neurons) (from UniProt P09951 1-704)

- binding [6]: binds
Substance: full-length synapsin-3 (two-hybrid library clone) (from UniProt O14994 1-580)
